This is an account of results in publication PMC12350791.

This assay addresses Elongation factor 1-alpha 2 (UniProt Q05639). Kind of assay: cross-link between two proteins; cross-linking mass spectrometry.
Chain of UniProt Q05639 (Q05639 whole entry): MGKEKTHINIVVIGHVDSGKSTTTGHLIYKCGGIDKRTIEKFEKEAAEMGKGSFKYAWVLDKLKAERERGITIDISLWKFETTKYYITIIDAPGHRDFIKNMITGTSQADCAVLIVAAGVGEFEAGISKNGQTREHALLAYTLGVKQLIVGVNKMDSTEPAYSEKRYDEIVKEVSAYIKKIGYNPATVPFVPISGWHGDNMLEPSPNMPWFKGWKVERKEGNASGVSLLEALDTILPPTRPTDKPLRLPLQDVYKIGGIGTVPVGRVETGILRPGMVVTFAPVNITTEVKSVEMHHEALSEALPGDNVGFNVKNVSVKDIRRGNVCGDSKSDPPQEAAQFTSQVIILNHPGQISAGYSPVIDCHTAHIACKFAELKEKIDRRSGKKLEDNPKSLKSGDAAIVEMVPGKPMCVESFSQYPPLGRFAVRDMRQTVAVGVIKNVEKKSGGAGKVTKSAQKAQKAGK

Chain of Elongation factor 1-gamma (chain, as listed by the source): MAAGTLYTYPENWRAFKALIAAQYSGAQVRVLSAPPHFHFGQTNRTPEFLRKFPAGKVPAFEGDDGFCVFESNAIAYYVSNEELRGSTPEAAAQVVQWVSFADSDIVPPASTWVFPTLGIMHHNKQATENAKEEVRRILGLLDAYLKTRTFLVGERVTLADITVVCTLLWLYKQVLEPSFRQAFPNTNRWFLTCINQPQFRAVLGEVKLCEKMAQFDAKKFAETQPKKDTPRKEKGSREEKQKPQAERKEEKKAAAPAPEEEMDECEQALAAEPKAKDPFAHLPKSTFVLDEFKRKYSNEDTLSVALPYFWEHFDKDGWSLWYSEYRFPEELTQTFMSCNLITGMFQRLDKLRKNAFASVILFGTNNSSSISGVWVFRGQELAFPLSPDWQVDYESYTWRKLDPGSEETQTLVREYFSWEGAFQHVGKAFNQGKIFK

For the substance Elongation factor 1-gamma, the “listed as a hit” value was “yes”.
